“And” between values parts separate entries of the source, which are not always exact repeats. Equal values may be shown once. Out of some 400,000 compounds screened, about 2,200 (0.55%) were called active. Inconclusive means that the source gave no clear call. Such entries were picked first, then a sample of the others. The call rests on the fitted dose curve; in most records, active means well fitted inhibition curve with a large enough effect; inconclusive means small, poorly fitted or top-dose-only effect, or another doubt; inactive means no such curve, though single readings can be large or run the other way. Where the call is inconclusive, the potency comes from a doubtful curve fit. Non-standard residues stand in square brackets, D forms with d. Residues, ends and D or L forms follow the SMILES beside them. βAla = NCCC(=O)O
What follows are compounds tested against DNA polymerase kappa (Homo sapiens) (UniProt Q9UBT6) (assay: qHTS for Inhibitors of Polymerase Kappa). Conditions: purified Pol kappa, fluorescent DNA synthesis assay, 10 min; series mostly up to 107 µM.
Summary of the method: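 Readout: fluorescence, taken kinetically at 0 and 10 min. Conditions: 10 nM Pol kappa, 15 min RT compound preincubation, 50 nM substrate final. Controls: enzyme-free buffer wells.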
On the % scale 0 is the no-effect control and ±100 the full control effect; potency means the concentration at half of the fitted maximal effect; tags describe the fitted curve by direction and shape.

Sequence of UniProt Q9UBT6 (Q9UBT6 whole entry, looked up): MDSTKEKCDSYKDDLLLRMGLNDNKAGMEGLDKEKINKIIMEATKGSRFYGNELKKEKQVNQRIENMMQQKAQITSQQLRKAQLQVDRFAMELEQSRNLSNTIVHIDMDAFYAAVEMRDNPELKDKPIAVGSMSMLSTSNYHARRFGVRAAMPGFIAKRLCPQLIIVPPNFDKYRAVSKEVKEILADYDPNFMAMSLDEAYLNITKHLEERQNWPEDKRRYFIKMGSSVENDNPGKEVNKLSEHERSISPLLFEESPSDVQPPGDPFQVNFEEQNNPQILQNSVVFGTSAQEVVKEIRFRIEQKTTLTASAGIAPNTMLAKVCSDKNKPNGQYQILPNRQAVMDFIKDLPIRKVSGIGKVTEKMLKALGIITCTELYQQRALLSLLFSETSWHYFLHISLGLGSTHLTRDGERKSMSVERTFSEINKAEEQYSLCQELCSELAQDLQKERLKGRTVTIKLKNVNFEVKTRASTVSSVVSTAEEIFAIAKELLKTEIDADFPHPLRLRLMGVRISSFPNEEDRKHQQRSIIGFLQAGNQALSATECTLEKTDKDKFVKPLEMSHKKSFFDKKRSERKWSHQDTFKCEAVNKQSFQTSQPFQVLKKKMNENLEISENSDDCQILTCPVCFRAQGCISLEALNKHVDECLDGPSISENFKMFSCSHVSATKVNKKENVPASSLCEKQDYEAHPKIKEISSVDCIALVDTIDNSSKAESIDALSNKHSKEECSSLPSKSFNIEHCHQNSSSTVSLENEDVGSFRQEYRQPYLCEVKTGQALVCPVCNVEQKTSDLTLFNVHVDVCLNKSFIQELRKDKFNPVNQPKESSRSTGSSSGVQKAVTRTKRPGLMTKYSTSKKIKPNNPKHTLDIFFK

Structure (SMILES)	activity, negative = inhibition	Potency
CCCCC[C@H](O)/C=C/C=C\C=C\C=C\[C@@H](O)[C@@H](O)CCCC(=O)O	inactive: 4.11% [at 19.4 µM]	–
Cc1ccc(OCc2nc(-c3ccc(C(=O)NCCc4ccc(Cl)cc4)cc3)oc2C)cc1	–	inactive
C1=Cc2ccccc2/C1=C\c1cccc(/C=C2\C=Cc3ccccc32)c1	–	inconclusive: 70.8 µM [inhibitor, partial curve, poor fit]
O=C(CSc1nnnn1C1CC1)N1CCN(c2ccc(O)cc2)CC1	–	inconclusive: 89.1 µM [inhibitor, partial curve, poor fit]
COC(=O)c1cc(-c2ccc(C)o2)nc2ccccc12	–	inconclusive: 89.1 µM [inhibitor, partial curve, poor fit]
COc1ccc(NC(=O)C2CC(c3c(F)cccc3Cl)=NO2)cc1OC (stereo unspecified)	–	inactive
COc1cc(C(=O)N/N=C/c2ccc3c(c2)c2ccccc2n3C)ccc1O	–	inconclusive: 79.4 µM [inhibitor, partial curve, poor fit]
Nc1[nH]n2c(=O)cc(-c3ccccc3)nc2c1N=Nc1ccccc1	–	inactive
Cc1ccc(CCNC(=O)c2sc3ncccc3c2-n2c(C)ccc2C)cc1	–	inactive
COc1cccc(C2=CC(c3ccccc3F)n3ncc(C(=O)Nc4ccc(C)cc4)c3N2)c1 (stereo unspecified)	–	inactive
O=C(NCc1ccco1)C1Cc2ccccc2CN1S(=O)(=O)c1ccccc1F (stereo unspecified)	–	inconclusive: 56.2 µM [inhibitor, partial curve, poor fit]
C(=C\c1ccco1)/c1ccc2ccccc2n1	–	inconclusive: 100 µM [inhibitor, single point]
CN1C(=O)c2ccccc2NC(=O)[C@]12O[C@@H]2c1cccc(O)c1	–	active: 39.8 µM
O=C1Nc2ccccc2SC(c2ccccc2)C1O (stereo unspecified)	–	active: 79.4 µM
COc1ccc(NC(=O)Nc2ccc(OC)c(OC)c2)c([N+](=O)[O-])c1	–	inactive
Cc1nnc(SCC2=C(C(=O)O)N3C(=O)C(NC(=O)Cn4ncc(Cl)c4C)C3SC2)s1 (stereo unspecified)	–	inconclusive: 89.1 µM [inhibitor, single point]
Cc1c(Cl)cnn1CC(=O)NC1C(=O)N2C(C(=O)O)=C(CSc3nnnn3C)CSC12 (stereo unspecified)	–	inconclusive: 89.1 µM [inhibitor, single point]
O=C(CN1CCN(S(=O)(=O)/C=C/c2ccccc2)CC1)NC(=O)NCc1ccco1	–	inconclusive: 89.1 µM [inhibitor, single point]
COc1ccc(NC(=O)C2CCN(S(=O)(=O)c3c(C)noc3/C=C/c3ccco3)CC2)cc1	–	inconclusive: 89.1 µM [inhibitor, single point]
O=C(Cc1ccccc1)NCC(=O)OCC(=O)c1ccc2ccccc2c1	–	inactive
O=C(CCc1n[nH]c(=O)[nH]c1=O)N/N=C/c1ccco1	–	inconclusive: 89.1 µM [inhibitor, single point]
O=C(Nc1ccc2oc(-c3ccc4ccccc4c3)nc2c1)c1cc(Br)ccc1Cl	–	inconclusive: 63.1 µM [inhibitor, partial curve, poor fit]
COc1cccc(OC)c1OC(=O)C1CC(=O)N(c2ccc3c(c2)OCCO3)C1 (stereo unspecified)	–	inconclusive: 89.1 µM [inhibitor, single point]
N#C/C(=C\c1ccc(-c2ccc(C(=O)O)cc2)o1)C(=O)NCC1CCCO1 (stereo unspecified)	–	inconclusive: 89.1 µM [inhibitor, single point]

Structure (SMILES)	activity, negative = inhibition	Potency
CCCN1CCN(c2ncnc3sc(C(=O)Nc4ccc(N(CC)CC)cc4C)c(C)c23)CC1	–	inactive
O=C(CSCc1cnn(-c2ccccc2)c1-n1cccc1)NCc1ccccc1F	–	inactive
O=S(=O)(Cc1ccccc1)N(O)c1ccccc1	–	inactive
O=C(O)/C=C1\CCCc2ccccc2[C@H]1O	–	inconclusive: 0.0089 µM [inhibitor, full curve, poor fit]
COc1cc2c(C(=O)N3CCN(c4cccc(C)c4)C(C)C3)cn(CC(C)C)c(=O)c2cc1OC (stereo unspecified)	–	inactive
CSCC[C@H](NC(=O)[C@H](CC(C)C)NC(=O)CCNC(=O)[C@@H](NC(=O)[C@H](Cc1ccccc1)NC(=O)[C@H](CO)NC(=O)[C@@H](N)CC(=O)O)C(C)C)C(N)=O (H-DSFV[βAla]LM-NH2)	–	inactive
CS(=O)(=O)N1Cc2ccccc2CC1C(=O)O (stereo unspecified)	–	inconclusive: 100 µM [inhibitor, single point]
CCOc1ccc(C(=O)c2ccc(O)c(O)c2O)cc1	–	active: 3.55 µM
O=C1C(=O)c2ncccc2-c2cccnc21	–	active: 8.91 µM
Cc1cc(NS(=O)(=O)c2ccc(NC(=O)/C=C/c3ccco3)cc2)nc(C)n1	–	active: 79.4 µM
C=C(C(=O)O)c1ccc2ccccc2c1	–	inconclusive: 56.2 µM [inhibitor, partial curve, poor fit]
C=CC1=C(C(=O)O)N2C(=O)[C@@H](NC(=O)/C(=N\OCC(=O)O)c3csc(N)n3)[C@H]2SC1	–	active: 50.1 µM
C=CC1=C(C(=O)O)N2C(=O)[C@@H](NC(=O)C(N=O)c3csc(N)n3)[C@H]2SC1 (stereo partly specified)	–	inconclusive: 37.7 µM [inhibitor, single point]
Cn1cc(C(=O)NCCN2CCN(c3cccc(Cl)c3)CC2)c2c3ccccc3n(C)c2c1=O	–	inconclusive: 89.1 µM [inhibitor, single point]
O=C(NN1C(=O)/C(=C/C=C/c2ccco2)SC1=S)c1ccncc1	–	active: 3.16 µM
O=C(O)CCCCCNS(=O)(=O)c1ccc2c3c(cccc13)C(=O)N2	–	inconclusive: 89.1 µM [inhibitor, single point]
O=C1C(=Cc2ccco2)CCCC1=Cc1ccco1	–	active: 50.1 µM
CC1CCc2nn(CC(=O)NC3CCCC3)cc2C1 (stereo unspecified)	–	inconclusive: 39.8 µM [inhibitor, single point]
CC1CCCC(C)N1/N=C/c1ccc(O)c(O)c1 (stereo unspecified)	–	active: 39.8 µM
O=C(O)c1cc(-c2ccc(/C=C3/SC(=S)N(Cc4ccccc4)C3=O)o2)ccc1Cl	–	active: 79.4 µM
CCn1c(SCC(=O)Nc2oc(-c3ccccc3)c(-c3ccccc3)c2C#N)nnc1-c1ccncc1	–	inconclusive: 89.1 µM [inhibitor, single point]
COc1ccccc1CNC(=O)Cn1c(=O)oc2cc(S(=O)(=O)NCc3ccccc3)ccc21	–	inactive
CCNc1ccc(Br)cc(C(=O)/C=C/c2ccc3c(c2)OCO3)c1=O	–	inconclusive: 50.1 µM [inhibitor, partial curve, poor fit]
COc1ccc(C(=O)c2ccc(O)cc2)c(O)c1O	–	active: 2.24 µM

Structure (SMILES)	activity, negative = inhibition	Potency
CNC(=O)Cn1c(=O)c2cccn2c2ccc(F)cc21	–	inactive
COc1ccc(-c2coc3c(OC)c(OC)cc(O)c3c2=O)cc1	–	inconclusive: 20 µM [inhibitor, partial curve, poor fit]
Cc1ccc(C(=O)/C=C/c2ccc(-c3ccc(C)cc3)o2)cc1	–	inconclusive: 50.1 µM [inhibitor, partial curve, poor fit]
CCc1nnc(NC(=O)c2cc(-c3ccco3)nc3ccccc23)s1	–	active: 25.1 µM
Clc1ccc(OCc2nc3ccccc3n2Cc2ccccc2)c(Cl)c1	–	inconclusive: 100 µM [inhibitor, single point]
O=C(/C=C/c1ccco1)N(Cc1ccc(Cl)cc1)C1CCS(=O)(=O)C1 (stereo unspecified)	–	inconclusive: 100 µM [inhibitor, single point]
COc1ccc(/C(C)=N/N2C(C)CCCC2C)c(OC)c1 (stereo unspecified)	–	inactive
COc1ccc2nc(NC(=O)c3nc(SCc4ccccc4F)ncc3Cl)sc2c1	–	inconclusive: 89.1 µM [inhibitor, single point]
CCOC(=O)C1=C(O)/C(=C\c2ccc(CNC(=O)C(=O)Nc3ccccc3)o2)N=C1C	–	inconclusive: 56.2 µM [inhibitor, partial curve, poor fit]
COc1ccc(/C=N/NC(=O)c2[nH]c3ccc(Br)cc3c2-c2ccccc2)c(C(=O)O)c1OC	–	inactive
O=S(=O)(c1ccc(Cl)cc1)c1cc(O)ccc1O	–	inconclusive: 89.1 µM [inhibitor, single point]
O=c1cc(-c2ccc(O)c(O)c2)oc2cc(O)c([C@@H]3O[C@H](CO)[C@@H](O)[C@H](O)[C@H]3O)c(O)c12	–	active: 20 µM
O=C(Nc1ccc2oc(-c3ccncc3)nc2c1)c1ccco1	–	inconclusive: 89.1 µM [inhibitor, partial curve, poor fit]
CCOc1ccc(OCC(=O)Nc2nccs2)cc1	–	inactive
O=C(Nc1ccc2nn(-c3ccccc3)nc2c1)c1ccc(Br)o1	–	inconclusive: 89.1 µM [inhibitor, single point]
COc1nc(-c2ccccc2)ccc1-c1noc(-c2ccccc2Br)n1	–	inconclusive: 100 µM [inhibitor, single point]
C(=N\N(Cc1ccccc1)c1ccccc1)/c1cccnc1	–	inactive
NCCNC(=O)c1c(NC(=O)c2ccccc2)sc2c1CCCC2	–	inactive
Cc1cc2nc3c(=O)[nH]c(=O)[nH]c3nc2c([N+](=O)[O-])c1N	–	active: 28.2 µM
O=C(O)c1cc(S(=O)(=O)O)cc(Nc2c3ccccc3nc3ccccc23)c1O	–	inconclusive: 100 µM [inhibitor, single point]
COc1ccc2nc3sc(C(=O)Nc4cc(Cl)c(OC)cc4OC)cc3cc2c1	–	inactive
S=C(Nc1ccc(N2CCOCC2)cc1)Nc1ccc2nc(-c3ccco3)c(-c3ccco3)nc2c1	–	inconclusive: 39.8 µM [inhibitor, partial curve, poor fit]
Cc1cccn2c(=O)c3cc(C#N)c(=NC(=O)c4ccccc4)n(Cc4ccco4)c3nc12	–	inconclusive: 89.1 µM [inhibitor, single point] and inconclusive: 79.4 µM [inhibitor, partial curve, poor fit]
